Results taken from PubChem BioAssay AID360 (National Center for Advancing Translational Sciences (NCATS), 2006).
The whole screen tested about 48,000 compounds, of which about 550 (1.1%) were called active. Inconclusive results (about 4%) are left out. Rule as the data show it: active = potency below about 15 µM; inconclusive = mostly about 16 µM to 33 µM; inactive = weaker than that. Some of the results follow.

target: Lysosomal acid glucosylceramidase (Homo sapiens) (UniProt P04062); assay: Glucocerebrosidase; settings: purified enzyme, resorufin glucoside fluorescence (screen aimed at inhibitors), 20 min;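 also: the screen sought inhibitors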
Outline: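 Compounds titrated against 0.2 nM normal enzyme, 30 uM resorufin beta-D-glucopyranoside substrate, citrate/phosphate buffer with taurocholate and tween-20, pH 5.9. Reaction ran 20 min at room temperature; fluorescence (Ex 548/Em 600) gave AC50.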
Potency is read from the fitted curve at half-maximal effect.

UniProt P04062, sequence (P04062 whole entry, looked up): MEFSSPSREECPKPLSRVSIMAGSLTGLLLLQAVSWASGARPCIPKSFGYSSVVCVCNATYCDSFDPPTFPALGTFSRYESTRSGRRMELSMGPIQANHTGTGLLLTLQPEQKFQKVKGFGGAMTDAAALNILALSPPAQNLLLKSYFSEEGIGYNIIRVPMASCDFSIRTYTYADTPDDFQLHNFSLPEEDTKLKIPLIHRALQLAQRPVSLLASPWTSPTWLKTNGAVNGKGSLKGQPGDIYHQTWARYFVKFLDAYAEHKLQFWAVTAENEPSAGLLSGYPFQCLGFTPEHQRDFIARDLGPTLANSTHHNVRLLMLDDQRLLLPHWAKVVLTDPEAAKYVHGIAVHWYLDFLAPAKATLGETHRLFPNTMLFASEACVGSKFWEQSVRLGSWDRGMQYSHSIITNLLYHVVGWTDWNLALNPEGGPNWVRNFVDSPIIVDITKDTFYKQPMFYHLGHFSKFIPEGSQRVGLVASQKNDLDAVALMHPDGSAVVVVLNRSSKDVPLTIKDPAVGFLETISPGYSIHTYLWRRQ

Potency, inactive:
COc1ccc(NC(=O)CCN2CCN(S(=O)(=O)c3cc(Cl)ccc3OC)CC2)cc1 > 76.9 µM
COc1ccc(C2(C)NC(=O)N(Cc3cc(Cl)cc4c3OCOC4)C2=O)cc1OC (stereo not drawn) > 76.9 µM
O=C(CSc1nnc(-c2ccco2)n1CC1CCCO1)N1CCCCC1 (stereo not drawn) > 76.9 µM
COCc1nc(-c2cc(OC)c(OC)c(OC)c2)no1 > 76.9 µM
CCn1c2ccccc2c2cc(NC(=O)CSc3nnc(C4CC4)n3Cc3ccco3)ccc21 > 76.9 µM
Cc1ccccc1NC1C=CS(=O)(=O)C1 (stereo not drawn) > 76.9 µM
COc1ccc(CN(C(=O)CN2C(=O)COc3ccccc32)C2CCCC2)c(OC)c1 > 76.9 µM
COc1cc(OC)cc(C(=O)NCCSCc2ccco2)c1 > 76.9 µM
Cc1ccccc1NC(=O)CSC(N)=O > 76.9 µM
CCCOc1ccc(C(=O)CCN2CCCCC2)cc1
CC(C)OCCCn1c(=S)[nH]c2ncccc2c1=O > 76.9 µM
Cc1ccc(-n2c(=O)c3sccc3n(CC(=O)NCc3ccco3)c2=O)cc1 > 76.9 µM
CCC1CCCCN1CCCNC(=O)COc1cc(=O)n(C)c2ccccc12 (stereo not drawn) > 76.9 µM
Cc1cccc(NC(=O)COc2nsnc2N2CCOCC2)c1 > 76.9 µM
CCOC(=O)NC(=O)CSc1nnnn1-c1ccc(Cl)cc1 > 76.9 µM
Cc1cc2cc(CNC(=O)c3ccc4c(c3)OCO4)ccc2n1C > 76.9 µM
C=CCn1c(SCC#N)nc2ccccc2c1=O > 76.9 µM
COc1ccc(Cn2c(SCC(=O)NCc3ccco3)nc3ccsc3c2=O)cc1 > 76.9 µM
COc1ccc(CC(=O)Nc2nc3ccccc3s2)cc1S(=O)(=O)N1CCOCC1 > 76.9 µM
CCOC(=O)c1nnn(-c2nonc2N)c1CNC(C)C > 76.9 µM
c1ccc(OCCOc2ncnc3ccccc23)cc1 > 76.9 µM
Cc1ccc(Cn2ccc(NC(=O)c3cc(-c4ccc(Cl)cc4)on3)n2)cc1 > 76.9 µM
Cc1ccc(Cn2c(SCC(C)C)nc3c2c(=O)n(C)c(=O)n3C)cc1 > 76.9 µM
CC(C)OCCCNC(=O)C1CC(=O)N(C2CCCCCCC2)C1 (stereo not drawn) > 76.9 µM
COc1ccc(CCNC(=O)c2sc(=S)n(C)c2N)cc1 > 76.9 µM
O=C(CSc1nnnn1C1CCCCC1)Nc1nc2c(s1)CCCC2 > 76.9 µM
CS(=O)(=O)Cc1nc2ccccc2oc1=O > 76.9 µM
CCOC(=O)Cn1cnc2c(nnn2Cc2ccc(Cl)cc2)c1=O > 76.9 µM
CCOC(=O)CCn1c(CC(=O)OCC)nc2ccccc21 > 76.9 µM
CSc1nnc2c(n1)OC(C)=Nc1ccccc1-2 > 76.9 µM
COc1ccc(Cc2nn3c(-c4ccccc4OC)nnc3s2)cc1 > 76.9 µM
Cc1ccc2nc(-c3ccc4c(c3)OCCO4)cc(C(=O)O)c2c1 > 76.9 µM
COc1ccc(Cn2nnnc2CN2CCc3ccccc32)cc1 > 76.9 µM
Cc1cc(=O)n(C)c(=O)n1CCCNc1ccccc1 > 76.9 µM
Cc1ccc(S(=O)(=O)NCCCN(C)C)cc1 > 76.9 µM
CCOC(=O)C1CCCN(C(=O)CN2CCN(Cc3ccc(Cl)cc3)C2=O)C1 (stereo not drawn) > 76.9 µM
CCCCn1c(N2CCC(Cc3ccccc3)CC2)nc2c1c(=O)[nH]c(=O)n2C > 76.9 µM
O=C(CN1C(=O)c2cccc3cccc1c23)NCc1cccnc1 > 76.9 µM
Cc1ccc(N=C2NC(=O)CS2)c(C)c1 > 76.9 µM
CN(C(=O)COC(=O)COc1ccc(Cl)cc1)C1CCCCC1 > 76.9 µM
O=C(COc1ccc(-c2nnco2)cc1)NC1CCCc2ccccc21 (stereo not drawn) > 76.9 µM
CC(C)n1c2ccccc2c2nc3ccccc3nc21 > 76.9 µM
Cn1c(SCC(N)=O)nnc1C1CCN(S(=O)(=O)c2ccccc2C(F)(F)F)CC1 > 76.9 µM
COc1ccc(CCNC(=O)c2nnn(CC(=O)Nc3ccccc3C)c2N)cc1OC > 76.9 µM
CCOC(=O)c1ccc(NC(=O)CN2CCc3ccccc3C2)cc1 > 76.9 µM
CCOc1ccc(-n2c(SCC(N)=O)nc3c(c2=O)SCC3)cc1 > 76.9 µM
COc1ccc(-c2noc(CCC(=O)Nc3cc(OC)ccc3OC)n2)cc1 > 76.9 µM
NCCCCCNC(=O)/C=N\O > 76.9 µM
Cc1ccc2c(c1)-c1cc(C)nn1C(c1ccc3c(c1)OCO3)N2 (stereo not drawn) > 76.9 µM
O=C(Nc1cc(=O)[nH]c2ncnn12)c1ccccc1Cl > 76.9 µM
Cc1ccn2cc(C(=O)Nc3ccccc3N3CCOCC3)nc2c1 > 76.9 µM
CS(=O)(=O)N(CCc1ccccc1)CC(=O)N1CCN(Cc2ccc3c(c2)OCO3)CC1 > 76.9 µM
COCCNC(=O)C(c1ccc(C)o1)N(Cc1ccc(F)cc1)C(=O)Cn1nnc2ccccc21 (stereo not drawn) > 76.9 µM
N#C/C(=C(/O)CN1CCOCC1)c1nc2ccccc2s1 > 76.9 µM
Cc1ccc2c(CNCc3ccco3)cc(=O)oc2c1 > 76.9 µM
O=C(CCCc1cccs1)N1CCN(S(=O)(=O)c2ccccc2Br)CC1 > 76.9 µM
c1ccc2c(c1)c1c3n2CCNC3CCC1 (stereo not drawn) > 76.9 µM
Cc1ccc2oc(=O)n(CCCOc3ccccc3)c2c1 > 76.9 µM
Cc1cc(C)c2c(n1)nn1c(N3CCN(c4ccccn4)CC3)cc(C)nc21 > 76.9 µM
Cc1cccn2c(=O)c3cc(C(=O)N4CCCc5ccccc54)n(C)c3nc12 > 76.9 µM
COc1ccc(-c2ccc(SCC(=O)NCc3ccco3)nn2)cc1OC > 76.9 µM
COc1cccc2[nH]c3c(N4CCC(C(N)=O)CC4)ncnc3c12 > 76.9 µM
COc1ccc(Cn2nnnc2C(c2cc3cc(C)cc(C)c3[nH]c2=O)N2CCOCC2)cc1 (stereo not drawn) > 76.9 µM
Cc1ccc2c(c1)nnn2C1CCN(S(C)(=O)=O)CC1 > 76.9 µM
Cc1sc2nc(CSc3nc4ccccc4c(=O)n3CCCN3CCOCC3)[nH]c(=O)c2c1C > 76.9 µM
CCOC(=O)C(NC(=O)CC)(Nc1ccccc1OC)C(F)(F)F (stereo not drawn) > 76.9 µM
COc1ccccc1CC(NC(C)=O)C(=O)N1CCN(C(=O)Nc2ccccc2Cl)CC1 (stereo not drawn) > 76.9 µM
Fc1ccc(F)c(CN2CCN(c3ncccn3)CC2)c1 > 76.9 µM
CCn1c(SCC(=O)Nc2nc3ccccc3s2)nnc1-c1ccc(OC)cc1 > 76.9 µM
CC1CCN(S(=O)(=O)c2ccc3[nH]c(=O)c(=O)[nH]c3c2)CC1
Cc1cccc(N=C2NC(=O)CS2)c1 > 76.9 µM
COCCCN1CC23C=CC(O2)C(C(=O)OC)C3C1=O (stereo not drawn) > 76.9 µM
c1cc(-c2noc(CC3CCCCC3)n2)ccn1 > 76.9 µM
Clc1cccc(CSc2nnc(-c3ccccn3)n2Cc2ccco2)c1
CC(C)(C)c1n[nH]c(=S)n(N)c1=O > 76.9 µM
CCOc1ccc(N(C)S(=O)(=O)c2ccc3[nH]cc(C(=O)NCC4CCCO4)c(=O)c3c2)cc1 (stereo not drawn) > 76.9 µM
Cc1ccc(NC(=O)CCn2nc(C)cc2C)c(C)c1 > 76.9 µM
O=C(CCN1CCN(CC(=O)Nc2ccccc2Cl)CC1)Nc1ccccc1F > 76.9 µM
CC1CN(C2CCCCC2)c2nc3c(c(=O)[nH]c(=O)n3C)n2C1 (stereo not drawn) > 76.9 µM
CCOC(=O)c1cnc2scnn2c1=O > 76.9 µM
CN(C)S(=O)(=O)N1CCN(CC(O)COc2ccc3cc(Br)ccc3c2)CC1 (stereo not drawn) > 76.9 µM
Cc1cc(C(=O)OCC(=O)NC2CCS(=O)(=O)C2)c(C)n1-c1ccccc1 (stereo not drawn) > 76.9 µM
CC12CCC(C(=O)Nc3cccc(NC(=O)C45CCC(C)(C(=O)O4)C5(C)C)n3)(OC1=O)C2(C)C > 76.9 µM
COc1ccccc1C(=O)NC(CCSC)C(=O)NCC(c1ccco1)N(C)C (stereo not drawn) > 76.9 µM
Clc1ccc(CN2C3=NCCN3c3ccccc32)cc1 > 76.9 µM
Fc1cccc(F)c1CN1CCN(c2ncccn2)CC1 > 76.9 µM
Nc1nc2n(c1C(=O)c1ccccc1)CCC2 > 76.9 µM
COc1ccc(N2CC(C)Cn3c2nc2c3c(=O)[nH]c(=O)n2C)cc1 (stereo not drawn) > 76.9 µM
Cc1noc(C)c1C(=O)Nc1c(F)cc(F)cc1Br > 76.9 µM
CCOC(=O)C1CCN(C(=O)CN(c2cccc(C(F)(F)F)c2)S(C)(=O)=O)CC1 > 76.9 µM
O=C1c2ccccc2C(=O)N1CCc1nc2ccccc2c(=O)n1-c1ccccn1 > 76.9 µM
Cc1nc(SCc2nc3ccccc3[nH]2)c2oc3ccccc3c2n1 > 76.9 µM
Cc1cc(C)cc(N(CC(=O)NCc2ccco2)C(=O)CCC(=O)Nc2ccccn2)c1 > 76.9 µM
